# The supplement of paper PMC8728848
# Some of the results follow.
# B1: Fm1D (Escherichia coli) (protein)
# chain: FSCNVDGGSSIGAGTTSVYVNLDPVIQPGQNLVVDLSQHISCWNDYGGWYDTDHINLVQGSAFAGSLQSYKGSLYWNNVTYPFPLTTNTNVLDIGDKTPMPLPLKLYITPVGAAGGVVIKAGEVIARIHMYKIATLGSGNPRNFTWNIISNNSVVMPTHHHHHH
# Columns and labels:
# Test in all cases: glycan array binding signal (z-score within array); higher = stronger binding
# Conditions in all cases: glycan notation: IUPAC condensed, linker removed
# [1] = target: Gal(b1-3)GlcNAc(b1-2)Man(a1-3)[GlcNAc(b1-4)][Gal(b1-3)GlcNAc(b1-2)Man(a1-6)]Man(b1-4)GlcNAc(b1-4)GlcNAc
# Outline: (§1)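 The binding signal is a Z-score computed within each array. Data were drawn from 3228 arrays in the Consortium for Functional Glycomics database, restricted to those with a known protein sequence. Scores were averaged over arrays of the same protein sequence at different concentrations or buffers, and over linkers, and negative values can be taken as non-binding.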
# [2] = target: Gal(b1-3)GlcNAc(b1-2)[Gal(b1-3)GlcNAc(b1-6)]Man(a1-6)[Gal(b1-3)GlcNAc(b1-2)Man(a1-3)]Man(b1-4)GlcNAc(b1-4)GlcNAc
# Outline: as §1
# [3] = target: Gal(b1-3)GlcNAc(b1-3)Gal(b1-3)GlcNAc
# Outline: as §1
# [4] = target: Gal(b1-3)GlcNAc(b1-3)Gal(b1-4)Glc
# Outline: as §1
# [5] = target: Gal(b1-3)GlcNAc(b1-3)Gal(b1-4)GlcNAc
# Outline: as §1
# [6] = target: Gal(b1-3)GlcNAc(b1-3)Gal(b1-4)GlcNAc(b1-2)Man(a1-3)[Gal(b1-3)GlcNAc(b1-3)Gal(b1-4)GlcNAc(b1-2)Man(a1-6)]Man(b1-4)GlcNAc(b1-4)GlcNAc
# Outline: as §1
# [7] = target: Gal(b1-3)GlcNAc(b1-3)Gal(b1-4)GlcNAc(b1-2)[Gal(b1-3)GlcNAc(b1-3)Gal(b1-4)GlcNAc(b1-6)]Man(a1-6)[Gal(b1-3)GlcNAc(b1-3)Gal(b1-4)GlcNAc(b1-2)Man(a1-3)]Man(b1-4)GlcNAc(b1-4)[Fuc(a1-6)]GlcNAc
# Outline: as §1
# [8] = target: Gal(b1-3)GlcNAc(b1-3)Gal(b1-4)GlcNAc(b1-3)Gal(b1-4)GlcNAc(b1-2)[Gal(b1-3)GlcNAc(b1-3)Gal(b1-4)GlcNAc(b1-3)Gal(b1-4)GlcNAc(b1-6)]Man(a1-6)[Gal(b1-3)GlcNAc(b1-3)Gal(b1-4)GlcNAc(b1-3)Gal(b1-4)GlcNAc(b1-2)Man(a1-3)]Man(b1-4)GlcNAc(b1-4)[Fuc(a1-6)]GlcNAc
# Outline: as §1
# [9] = target: Gal(b1-3)GlcNAc(b1-3)Gal(b1-4)GlcNAc(b1-6)[Gal(b1-3)GlcNAc(b1-3)]Gal(b1-4)Glc
# Outline: as §1
# [10] = target: Gal(b1-3)GlcNAc(b1-3)Gal(b1-4)[Fuc(a1-3)]GlcNAc
# Outline: as §1
# [11] = target: Gal(b1-3)GlcNAc(b1-3)Gal(b1-4)[Fuc(a1-3)]GlcNAc(b1-6)[Gal(b1-3)GlcNAc(b1-3)]Gal(b1-4)Glc
# Outline: as §1
# [12] = target: Gal(b1-3)GlcNAc(b1-3)GalNAc
# Outline: as §1
# [13] = target: Gal(b1-3)GlcNAc(b1-6)Gal(b1-4)GlcNAc
# Outline: as §1
# [14] = target: Gal(b1-3)GlcNAc(b1-6)GalNAc
# Outline: as §1
# [15] = target: Gal(b1-3)GlcNAc(b1-6)[Gal(b1-3)]GalNAc
# Outline: as §1
# Gal(b1-3)GlcNAc6S = target: Gal(b1-3)GlcNAc6S
# Outline: as §1
# [16] = target: Gal(b1-3)[Fuc(a1-4)]GlcNAc
# Outline: as §1
# [17] = target: Gal(b1-3)[Fuc(a1-4)]GlcNAc(b1-2)Man
# Outline: as §1
# [18] = target: Gal(b1-3)[Fuc(a1-4)]GlcNAc(b1-2)Man(a1-3)[Gal(b1-3)[Fuc(a1-4)]GlcNAc(b1-2)Man(a1-6)]Man(b1-4)GlcNAc(b1-4)[Fuc(a1-6)]GlcNAc
# Outline: as §1
# [19] = target: Gal(b1-3)[Fuc(a1-4)]GlcNAc(b1-3)Gal(b1-3)[Fuc(a1-4)]GlcNAc
# Outline: as §1
# [20] = target: Gal(b1-3)[Fuc(a1-4)]GlcNAc(b1-3)Gal(b1-4)[Fuc(a1-3)]GlcNAc
# Outline: as §1
# [21] = target: Gal(b1-3)[Fuc(a1-4)]GlcNAc(b1-6)GalNAc
# Outline: as §1
# [22] = target: Gal(b1-3)[GlcNAc(b1-6)]GalNAc
# Outline: as §1
# [23] = target: Gal(b1-3)[Neu5Ac(a2-6)]GalNAc
# Outline: as §1
# [24] = target: Gal(b1-3)[Neu5Ac(a2-6)]GlcNAc(b1-4)Gal(b1-4)Glc
# Outline: as §1
# [25] = target: Gal(b1-3)[Neu5Ac(b2-6)]GalNAc
# Outline: as §1
# Gal(b1-4)Gal = target: Gal(b1-4)Gal
# Outline: as §1
# [26] = target: Gal(b1-4)GalNAc(a1-3)[Fuc(a1-2)]Gal(b1-4)GlcNAc
# Outline: as §1
# [27] = target: Gal(b1-4)GalNAc(b1-3)[Fuc(a1-2)]Gal(b1-4)GlcNAc
# Outline: as §1
# Gal(b1-4)Glc = target: Gal(b1-4)Glc
# Outline: as §1
# Gal(b1-4)Glc6S = target: Gal(b1-4)Glc6S
# Outline: as §1
# Gal(b1-4)GlcNAc = target: Gal(b1-4)GlcNAc
# Outline: as §1
# [28] = target: Gal(b1-4)GlcNAc(a1-6)Gal(b1-4)GlcNAc
# Outline: as §1
# Gal(b1-4)GlcNAc(b1-2)Man = target: Gal(b1-4)GlcNAc(b1-2)Man
# Outline: as §1
# [29] = target: Gal(b1-4)GlcNAc(b1-2)Man(a1-3)Man(b1-4)GlcNAc(b1-4)GlcNAc
# Outline: as §1
# [30] = target: Gal(b1-4)GlcNAc(b1-2)Man(a1-3)[Gal(b1-4)GlcNAc(b1-2)Man(a1-6)]Man(b1-4)GlcNAc(b1-4)GlcNAc
# Outline: as §1
# [31] = target: Gal(b1-4)GlcNAc(b1-2)Man(a1-3)[Gal(b1-4)GlcNAc(b1-2)Man(a1-6)]Man(b1-4)GlcNAc(b1-4)[Fuc(a1-6)]GlcNAc
# Outline: as §1
# [32] = target: Gal(b1-4)GlcNAc(b1-2)Man(a1-3)[Gal(b1-4)GlcNAc(b1-2)Man(a1-6)][Gal(b1-4)GlcNAc(b1-4)]Man(b1-4)GlcNAc(b1-4)[Fuc(a1-6)]GlcNAc
# Outline: as §1
# [33] = target: Gal(b1-4)GlcNAc(b1-2)Man(a1-3)[Gal(b1-4)GlcNAc(b1-2)Man(a1-6)][GlcNAc(b1-4)]Man(b1-4)GlcNAc(b1-4)[Fuc(a1-6)]GlcNAc
# Outline: as §1
# [34] = target: Gal(b1-4)GlcNAc(b1-2)Man(a1-3)[GlcNAc(b1-2)Man(a1-6)]Man(b1-4)GlcNAc(b1-4)GlcNAc
# Outline: as §1
# [35] = target: Gal(b1-4)GlcNAc(b1-2)Man(a1-3)[GlcNAc(b1-4)][Gal(b1-4)GlcNAc(b1-2)Man(a1-6)]Man(b1-4)GlcNAc(b1-4)GlcNAc
# Outline: as §1
# [36] = target: Gal(b1-4)GlcNAc(b1-2)Man(a1-3)[Man(a1-6)]Man(b1-4)GlcNAc(b1-4)GlcNAc
# Outline: as §1
# [37] = target: Gal(b1-4)GlcNAc(b1-2)Man(a1-6)Man(b1-4)GlcNAc(b1-4)GlcNAc
# Outline: as §1
# [38] = target: Gal(b1-4)GlcNAc(b1-2)Man(a1-6)[GlcNAc(b1-2)Man(a1-3)]Man(b1-4)GlcNAc(b1-4)GlcNAc
# Outline: as §1
# [39] = target: Gal(b1-4)GlcNAc(b1-2)Man(a1-6)[Man(a1-3)]Man(b1-4)GlcNAc(b1-4)GlcNAc
# Outline: as §1
binder,measurement,setting,value
B1,glycan array binding signal (z-score),[1],-0.145
same,glycan array binding signal (z-score),[2],-0.141
same,glycan array binding signal (z-score),[3],-0.146
same,glycan array binding signal (z-score),[4],-0.141
same,glycan array binding signal (z-score),[5],-0.142
same,glycan array binding signal (z-score),[6],-0.144
same,glycan array binding signal (z-score),[7],-0.123
same,glycan array binding signal (z-score),[8],-0.112
same,glycan array binding signal (z-score),[9],-0.143
same,glycan array binding signal (z-score),[10],-0.144
same,glycan array binding signal (z-score),[11],-0.14
same,glycan array binding signal (z-score),[12],-0.143
same,glycan array binding signal (z-score),[13],-0.146
same,glycan array binding signal (z-score),[14],-0.12
same,glycan array binding signal (z-score),[15],3.7
same,glycan array binding signal (z-score),Gal(b1-3)GlcNAc6S,-0.146
same,glycan array binding signal (z-score),[16],-0.146
same,glycan array binding signal (z-score),[17],-0.142
same,glycan array binding signal (z-score),[18],-0.125
same,glycan array binding signal (z-score),[19],-0.146
same,glycan array binding signal (z-score),[20],-0.145
same,glycan array binding signal (z-score),[21],-0.135
same,glycan array binding signal (z-score),[22],4.94
same,glycan array binding signal (z-score),[23],3.04
same,glycan array binding signal (z-score),[24],-0.148
same,glycan array binding signal (z-score),[25],0.355
same,glycan array binding signal (z-score),Gal(b1-4)Gal,-0.144
same,glycan array binding signal (z-score),[26],-0.144
same,glycan array binding signal (z-score),[27],-0.149
same,glycan array binding signal (z-score),Gal(b1-4)Glc,-0.145
same,glycan array binding signal (z-score),Gal(b1-4)Glc6S,-0.142
same,glycan array binding signal (z-score),Gal(b1-4)GlcNAc,-0.147
same,glycan array binding signal (z-score),[28],-0.143
same,glycan array binding signal (z-score),Gal(b1-4)GlcNAc(b1-2)Man,-0.139
same,glycan array binding signal (z-score),[29],-0.148
same,glycan array binding signal (z-score),[30],-0.145
same,glycan array binding signal (z-score),[31],-0.125
same,glycan array binding signal (z-score),[32],-0.143
same,glycan array binding signal (z-score),[33],-0.143
same,glycan array binding signal (z-score),[34],-0.146
same,glycan array binding signal (z-score),[35],-0.146
same,glycan array binding signal (z-score),[36],-0.146
same,glycan array binding signal (z-score),[37],-0.147
same,glycan array binding signal (z-score),[38],-0.145
same,glycan array binding signal (z-score),[39],-0.144
